From PubChem BioAssay AID360 (National Center for Advancing Translational Sciences (NCATS), 2006)
About 550 (1.1%) of roughly 48,000 compounds were called active. About 4% were inconclusive and are not listed. No stated cut-off is given here; in the data, active means potency below about 15 µM; inconclusive means mostly about 16 µM to 33 µM; inactive means weaker than that. This is one part of the list.

Biological target: Lysosomal acid glucosylceramidase (Homo sapiens) (UniProt P04062)
Test: Glucocerebrosidase;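 further: the screen sought inhibitors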
Settings: purified enzyme, resorufin glucoside fluorescence (screen aimed at inhibitors), 20 min; series mostly up to 77 µM
Method in brief: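 Normal human glucocerebrosidase (0.2 nM final) was assayed with resorufin β-D-glucopyranoside (30 uM final) in 50mM citric acid/KH2PO4, 10mM sodium taurocholate, 0.01% tween-20, pH 5.9. Compounds were titrated; fluorescence (Ex 548, Em 600) read after 20 min at RT.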
Potency means the concentration at half of the fitted maximal effect.

Chain of UniProt P04062 (P04062 whole entry, looked up): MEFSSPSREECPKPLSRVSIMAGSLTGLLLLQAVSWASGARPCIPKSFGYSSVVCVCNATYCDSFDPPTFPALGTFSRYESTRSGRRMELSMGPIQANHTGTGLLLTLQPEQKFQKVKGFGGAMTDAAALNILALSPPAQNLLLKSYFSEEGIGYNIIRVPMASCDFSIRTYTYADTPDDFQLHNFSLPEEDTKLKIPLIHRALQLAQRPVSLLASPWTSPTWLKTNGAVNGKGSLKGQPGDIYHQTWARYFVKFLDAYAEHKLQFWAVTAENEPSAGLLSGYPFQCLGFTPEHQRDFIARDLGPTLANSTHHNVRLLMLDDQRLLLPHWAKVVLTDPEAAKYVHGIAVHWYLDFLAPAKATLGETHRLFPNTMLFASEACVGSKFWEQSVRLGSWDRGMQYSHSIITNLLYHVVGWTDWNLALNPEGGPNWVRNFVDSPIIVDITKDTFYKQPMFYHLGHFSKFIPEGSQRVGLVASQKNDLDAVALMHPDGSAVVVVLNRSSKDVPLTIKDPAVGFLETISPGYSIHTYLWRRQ

Potency, inactive:
CCOc1ccccc1NC(=O)NC1CC2CCCC(C1)N2Cc1nnnn1CCc1ccccc1 (stereo not given) > 76.9 µM
CCCN(CCC)c1nc2ccccc2nc1C(C#N)C(=O)OCCOC (stereo not given) > 76.9 µM
CC1(C)NC(=O)N(CC(O)COc2ccc(-c3ccccc3)cc2)C1=O (stereo not given) > 76.9 µM
Cc1ccc2nsnc2c1S(=O)(=O)N1CCCC1 > 76.9 µM
Cc1cnc(NC(=O)c2ccco2)s1 > 76.9 µM
CCOc1ccc(Cc2nn[nH]n2)cc1 > 76.9 µM
Cc1ccc2nc(SCCC#N)nc(C)c2c1 > 76.9 µM
O=C(COc1ncnc2sccc12)Nc1ccc2c(c1)OCCO2 > 76.9 µM
CCOC(=O)c1ccc2c(c1)N(Cc1ccccc1C)C(=O)c1ccccc1S2=O (stereo not given) > 76.9 µM
COc1ccc2[nH]c(C(=O)O)c(CCC(=O)O)c2c1 > 76.9 µM
O=C1COc2ccc(C(=O)COC(=O)C3CCN(S(=O)(=O)c4cccs4)CC3)cc2N1 > 76.9 µM
COc1ccc2[nH]c(=O)c(CN(C(=O)COc3ccccc3)C(C)C)cc2c1 > 76.9 µM
O=C(CN1CCOc2ccccc21)NCc1cccs1 > 76.9 µM
COc1ccc(Cl)cc1NC(=O)CN1C(=O)CCS(=O)(=O)c2ccccc21 > 76.9 µM
Cc1cc(C)nc(-n2nc(C)cc2NC(=O)COC(=O)CCC(=O)c2cccs2)n1 > 76.9 µM
CC1Cc2ccccc2N1C(=O)CSc1nnc2sc3ccccc3n12 (stereo not given) > 76.9 µM
COc1ccccc1-c1cc(C(=O)NC(C)c2ccccc2)no1 (stereo not given) > 76.9 µM
CCOc1ccc(OCC)c(NC(=O)CSc2nnc(Cn3cnc4ccccc43)n2C)c1 > 76.9 µM
COc1nc(Oc2ccc(=O)[nH]n2)nc(N2CCOCC2)n1 > 76.9 µM
CC(=O)NCCOc1cccc2ccccc12 > 76.9 µM
COc1ccc(N(C(C)=O)C2C=CS(=O)(=O)C2)c(OC)c1 (stereo not given) > 76.9 µM
O=C(Nc1ccc2c(c1)OCO2)C1CCCN(S(=O)(=O)c2cccs2)C1 (stereo not given)
COc1ccc(CCNc2oc(-c3ccccc3OC)nc2C#N)cc1 > 76.9 µM
CCOc1ccc(N2C(=O)c3cccnc3C2Nc2ccc(F)cc2)cc1 (stereo not given) > 76.9 µM
CCC1=[N+]([O-])C(C)(/C(C)=N\O)N(O)C1(C)C (stereo not given) > 76.9 µM
CC(C)(C)NC(=O)C(c1ccccn1)N(C(=O)c1ccc2c(c1)OCCO2)C1CCCC1 (stereo not given) > 76.9 µM
COCCN(C(=O)Cn1nnc2ccccc21)C(C(=O)NC1CCCC1)c1cc(OC)ccc1OC (stereo not given) > 76.9 µM
CCOC(=O)Cc1csc(NC(=O)COc2ccccc2)n1 > 76.9 µM
O=C(NCc1ccc(F)cc1)C1CCN(C(=O)NCc2ccccc2)CC1 > 76.9 µM
O=C(NCCCN1CCCC1=O)c1nnc(Cc2c(F)cccc2Cl)o1 > 76.9 µM
CC(=O)Nc1ccc(S(=O)(=O)N(C2=NCC(C)S2)c2ccccc2)cc1 (stereo not given) > 76.9 µM
CCn1c(SCC(=O)Nc2cccc(OC)c2)nnc1-c1ccc(Cl)cc1 > 76.9 µM
Cc1ccc(NC(=O)COC(=O)CN2CSCC2=O)cc1C > 76.9 µM
CCOC(=O)C(NC(=O)Nc1ncccn1)(Oc1ccccc1)C(F)(F)F (stereo not given) > 76.9 µM
CCS(=O)(=O)N1CCC(C(=O)NCc2ccc(F)cc2)CC1 > 76.9 µM
Cc1ccc(S(=O)(=O)N2c3ccccc3NC(=O)C2CC(=O)Nc2ccccc2)cc1 (stereo not given) > 76.9 µM
O=C(Oc1ccccc1)c1cc2ccccc2o1 > 76.9 µM
CCn1c(SCC(=O)NCc2ccc3c(c2)OCO3)nnc1-c1cccs1 > 76.9 µM
O=C(CN1C(=O)NC2(CCCCC2)C1=O)Nc1ccc(S(=O)(=O)N2CCOCC2)cc1 > 76.9 µM
CC(=O)c1ccc(N2CCN(C(=O)C3CCC3)CC2)cc1 > 76.9 µM
CCCc1[nH]nc2c1C(c1ccc(OC)c(Cn3nnc4ccccc43)c1)C(C#N)=C(N)O2 (stereo not given) > 76.9 µM
CCCC(=O)NCCc1nc2ccccc2n1C > 76.9 µM
CCOc1ccccc1C(=O)N(Cc1cccs1)C1CCS(=O)(=O)C1 (stereo not given) > 76.9 µM
O=C1C(=O)N(CCCN2CCOCC2)C(c2cccs2)/C1=C(/O)c1ccc2c(c1)OCO2 (stereo not given) > 76.9 µM
Cc1cc(NC(=O)CSc2ccccc2)no1 > 76.9 µM
O=C(COC(=O)c1cccnc1)Nc1ccc(F)cc1 > 76.9 µM
Fc1ccc(C(c2nnnn2C2CCCC2)N2CCN(Cc3ccccc3)CC2)cc1 (stereo not given) > 76.9 µM
Cn1c(SCC(=O)NC2CC2)nnc1-c1ccco1 > 76.9 µM
O=C(CCn1c(=S)[nH]c2cc3c(cc2c1=O)OCO3)N1CCN(C2CCCCC2)CC1 > 76.9 µM
CSc1nc2ccc(NC(=O)C3CC(=O)N(Cc4ccco4)C3)cc2s1 (stereo not given) > 76.9 µM
CN(C)S(=O)(=O)c1ccc2c(c1)C(CC(=O)O)OC2=O (stereo not given) > 76.9 µM
Cc1ccccc1NS(=O)(=O)c1cc(C(=O)NCc2ccco2)ccc1C > 76.9 µM
CCN1CCN(C(=O)c2cn(CCOC)c(=O)c3c2c2ccccc2n3C)CC1 > 76.9 µM
COc1ccc(C2(CNC(=O)CCC(=O)O)CCCC2)cc1 > 76.9 µM
COc1ccc(-c2nc3nc(C)c(Cc4ccccc4)c(=O)n3[nH]2)cc1 > 76.9 µM
Cc1cc(-c2ccccc2)nn1-c1nc2c(c(=O)[nH]c(=O)n2C)n1C > 76.9 µM
N#CC(C(=O)C1CCCCC1)c1nc2ccccc2[nH]1 (stereo not given) > 76.9 µM
S=c1[nH]ncn1/N=C/c1ccccc1 > 76.9 µM
COc1ccc(OC)c(NC(=O)CSC2=NCCS2)c1 > 76.9 µM
C=CCn1c(SCC(=O)Nc2nnc(CC)s2)nnc1-c1ccco1 > 76.9 µM
O=C(NCC1COc2ccccc2O1)C1CCN(S(=O)(=O)c2cccc3nsnc23)CC1 (stereo not given) > 76.9 µM
O=S(=O)(c1ccc(Oc2ccc(Br)cc2)cc1)N1CCOCC1 > 76.9 µM
O=C1c2ccccc2NC(c2ccccn2)N1c1ccc(Cl)cc1 (stereo not given) > 76.9 µM
O=c1c2ccccc2nc(-c2ccccc2)n1CCCn1ccnc1 > 76.9 µM
O=C(CSc1nnnn1-c1ccc2c(c1)OCCO2)N1CCc2ccccc21 > 76.9 µM
CCOC(=O)C1CCCCN1C(=O)CCc1c(C)nc2ncnn2c1C (stereo not given) > 76.9 µM
Cc1cc(C(=O)CN2C(=O)C3CC=CCC3C2=O)c(C)n1-c1ccccc1 (stereo not given) > 76.9 µM
O=C(Nc1ccc2c(c1)CCC2)C1CCCO1 (stereo not given) > 76.9 µM
O=C(O)C1CCCCC1C(=O)NCCc1ccc(Cl)cc1 (stereo not given) > 76.9 µM
Cn1c(=O)c2c(nc(CN3CCC(C(N)=O)CC3)n2Cc2c(Cl)cccc2Cl)n(C)c1=O > 76.9 µM
CCc1nnc(NC(=O)Cn2nc(-c3ccccc3OC)ccc2=O)s1 > 76.9 µM
COCCn1c(NCc2ccc(C)cc2)nc2c1c(=O)[nH]c(=O)n2C > 76.9 µM
CCCCOc1ccccc1NC(=O)c1ccc(=O)[nH]c1 > 76.9 µM
O=C(COc1ccccc1Cl)OCC(=O)N1CCN(S(=O)(=O)c2ccccc2)CC1 > 76.9 µM
COCCn1c(CNc2ccc(F)cc2)nnc1SCC(=O)Nc1ccc(OC)cc1OC > 76.9 µM
Cc1ccc2nc(SCc3nnc(-c4cccs4)o3)[nH]c2c1 > 76.9 µM
CC(C)n1c(-c2ccco2)csc1=Nc1cccnc1 > 76.9 µM
CCOc1ccc(CNC(=O)C2CCN(S(=O)(=O)N3CCCC3)CC2)cc1OC > 76.9 µM
O=S1(=O)C=C(N2CCCCC2)c2ccccc21 > 76.9 µM
COc1ccc(C2C(C#N)=C(N)Oc3cc(C)n(Cc4ccncc4)c(=O)c32)cc1 (stereo not given) > 76.9 µM
CCOC(=O)C(NC(=O)N1CCCCC1)(c1ccccc1)C(F)(F)F (stereo not given) > 76.9 µM
COc1ccc2c(c1)c1nnc(SC)nc1n2C > 76.9 µM
CNC(=O)C1C2C=CC3(O2)C1C(=O)N(C1CC1)C3C(=O)NCc1ccc(OC)cc1 (stereo not given) > 76.9 µM
CCCS(=O)(=O)N1CCC(C(=O)NCCN2CCCC2)CC1 > 76.9 µM
CCOC(=O)C1CCCN(C(=O)c2ccc3c(c2)NC(=O)C(N2CCOCC2)S3)C1 (stereo not given) > 76.9 µM
COCCn1c(N)c(C(=O)NCc2cccs2)c2nc3ccccc3nc21 > 76.9 µM
CC1CN(Cc2nc3c(c(=O)[nH]c(=O)n3C)n2CCN2CCOCC2)CC(C)O1 (stereo not given) > 76.9 µM
CCCn1c(SCC(=O)Nc2ccc3c(c2)OCCO3)nnc1-c1ccco1 > 76.9 µM
O=C(CN(Cc1ccccc1F)C(=O)Cn1nnc(-c2cccs2)n1)NCC1CCCO1 (stereo not given) > 76.9 µM
CCCCC(=O)NC(Nc1nc(C2CC2)cs1)(C(=O)OCC)C(F)(F)F (stereo not given) > 76.9 µM
